Experimental findings from article PMC4071339 are described below.

Amino acid sequences for entries named in this document (tags omitted). A change or cut given only in a name is not applied to a line headed by its entry. Chains listed by the source or under a name are the forms on record and can include a tag or linker. Residues count along the entry.
UniProt P26450: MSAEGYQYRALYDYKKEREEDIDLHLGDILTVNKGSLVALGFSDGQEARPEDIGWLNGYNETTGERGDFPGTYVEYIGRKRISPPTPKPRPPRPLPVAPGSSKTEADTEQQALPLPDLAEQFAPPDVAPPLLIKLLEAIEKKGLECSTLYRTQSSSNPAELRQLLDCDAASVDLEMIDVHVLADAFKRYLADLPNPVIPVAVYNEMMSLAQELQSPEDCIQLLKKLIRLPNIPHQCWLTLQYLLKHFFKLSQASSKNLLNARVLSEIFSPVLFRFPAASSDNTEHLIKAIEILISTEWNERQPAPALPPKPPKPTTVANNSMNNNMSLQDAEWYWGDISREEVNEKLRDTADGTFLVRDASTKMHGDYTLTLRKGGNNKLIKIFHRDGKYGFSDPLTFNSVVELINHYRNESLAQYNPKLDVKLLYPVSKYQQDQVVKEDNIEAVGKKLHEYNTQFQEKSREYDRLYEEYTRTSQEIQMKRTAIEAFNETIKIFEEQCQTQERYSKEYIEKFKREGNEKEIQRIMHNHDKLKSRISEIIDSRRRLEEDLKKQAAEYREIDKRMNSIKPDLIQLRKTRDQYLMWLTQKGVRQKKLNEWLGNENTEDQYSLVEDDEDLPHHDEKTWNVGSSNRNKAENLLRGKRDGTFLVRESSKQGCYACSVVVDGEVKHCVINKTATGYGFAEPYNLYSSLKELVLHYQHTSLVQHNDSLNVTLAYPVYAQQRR
HA-tagged BMP receptor type Ib (BMPRIb-HA) (P36898, residues 14-502): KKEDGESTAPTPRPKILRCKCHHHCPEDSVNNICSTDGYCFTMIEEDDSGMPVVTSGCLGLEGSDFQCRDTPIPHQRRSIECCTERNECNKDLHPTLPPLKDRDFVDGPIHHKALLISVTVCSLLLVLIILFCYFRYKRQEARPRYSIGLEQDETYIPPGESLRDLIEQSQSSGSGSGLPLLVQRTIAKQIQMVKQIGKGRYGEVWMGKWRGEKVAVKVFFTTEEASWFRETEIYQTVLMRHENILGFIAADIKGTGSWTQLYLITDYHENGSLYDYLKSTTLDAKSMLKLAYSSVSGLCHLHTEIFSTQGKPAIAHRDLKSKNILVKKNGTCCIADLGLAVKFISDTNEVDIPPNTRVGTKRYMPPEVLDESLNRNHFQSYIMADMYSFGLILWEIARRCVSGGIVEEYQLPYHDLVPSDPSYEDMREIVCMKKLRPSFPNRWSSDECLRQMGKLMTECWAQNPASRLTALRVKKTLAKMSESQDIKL
kinase-dead BMP receptor type Ib K231R (BMPRIb-K231R) (P36898, form named): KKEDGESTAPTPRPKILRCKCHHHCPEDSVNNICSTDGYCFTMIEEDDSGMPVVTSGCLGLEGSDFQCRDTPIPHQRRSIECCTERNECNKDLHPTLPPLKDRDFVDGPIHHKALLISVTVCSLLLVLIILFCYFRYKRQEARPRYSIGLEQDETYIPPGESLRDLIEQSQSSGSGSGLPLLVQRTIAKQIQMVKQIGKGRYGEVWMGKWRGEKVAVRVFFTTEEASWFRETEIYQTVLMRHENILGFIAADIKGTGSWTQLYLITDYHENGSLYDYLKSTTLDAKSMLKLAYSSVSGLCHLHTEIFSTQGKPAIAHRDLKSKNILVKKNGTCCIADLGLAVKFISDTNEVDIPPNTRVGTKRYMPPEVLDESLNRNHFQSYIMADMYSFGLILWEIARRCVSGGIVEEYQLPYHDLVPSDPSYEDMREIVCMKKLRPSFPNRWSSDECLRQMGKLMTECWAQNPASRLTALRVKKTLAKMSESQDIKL
HA-tagged BMP receptor type II long form (BMPRII-LF-HA), wild type (Q13873, residues 27-1038): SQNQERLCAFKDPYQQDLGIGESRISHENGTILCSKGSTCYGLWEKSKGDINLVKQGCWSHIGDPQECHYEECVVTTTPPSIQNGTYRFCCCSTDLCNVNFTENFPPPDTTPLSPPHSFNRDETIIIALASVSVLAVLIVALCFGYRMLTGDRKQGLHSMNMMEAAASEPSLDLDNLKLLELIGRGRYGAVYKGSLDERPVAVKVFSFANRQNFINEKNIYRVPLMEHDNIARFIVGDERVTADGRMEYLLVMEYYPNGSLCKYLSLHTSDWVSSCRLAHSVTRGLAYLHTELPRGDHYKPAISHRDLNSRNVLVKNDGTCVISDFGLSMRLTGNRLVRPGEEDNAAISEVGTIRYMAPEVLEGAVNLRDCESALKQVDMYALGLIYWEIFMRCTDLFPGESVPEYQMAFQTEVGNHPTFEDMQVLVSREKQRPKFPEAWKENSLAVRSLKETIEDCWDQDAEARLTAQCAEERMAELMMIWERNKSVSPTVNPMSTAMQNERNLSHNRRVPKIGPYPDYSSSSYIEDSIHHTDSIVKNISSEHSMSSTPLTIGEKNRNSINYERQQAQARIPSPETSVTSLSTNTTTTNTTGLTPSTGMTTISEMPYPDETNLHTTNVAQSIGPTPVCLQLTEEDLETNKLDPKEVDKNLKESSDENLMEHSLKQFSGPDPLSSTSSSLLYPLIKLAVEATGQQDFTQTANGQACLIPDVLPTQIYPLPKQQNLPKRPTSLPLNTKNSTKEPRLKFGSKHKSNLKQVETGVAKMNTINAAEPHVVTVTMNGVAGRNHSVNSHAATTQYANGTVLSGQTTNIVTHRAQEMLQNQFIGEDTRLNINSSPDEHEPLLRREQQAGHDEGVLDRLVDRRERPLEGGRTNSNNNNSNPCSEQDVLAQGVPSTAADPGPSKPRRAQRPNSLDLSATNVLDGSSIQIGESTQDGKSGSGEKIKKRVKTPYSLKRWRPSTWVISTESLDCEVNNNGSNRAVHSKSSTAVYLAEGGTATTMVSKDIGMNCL
HA-tagged kinase-dead BMPRII long form K230R (BMPRII-LF-K230R) (Q13873, form named): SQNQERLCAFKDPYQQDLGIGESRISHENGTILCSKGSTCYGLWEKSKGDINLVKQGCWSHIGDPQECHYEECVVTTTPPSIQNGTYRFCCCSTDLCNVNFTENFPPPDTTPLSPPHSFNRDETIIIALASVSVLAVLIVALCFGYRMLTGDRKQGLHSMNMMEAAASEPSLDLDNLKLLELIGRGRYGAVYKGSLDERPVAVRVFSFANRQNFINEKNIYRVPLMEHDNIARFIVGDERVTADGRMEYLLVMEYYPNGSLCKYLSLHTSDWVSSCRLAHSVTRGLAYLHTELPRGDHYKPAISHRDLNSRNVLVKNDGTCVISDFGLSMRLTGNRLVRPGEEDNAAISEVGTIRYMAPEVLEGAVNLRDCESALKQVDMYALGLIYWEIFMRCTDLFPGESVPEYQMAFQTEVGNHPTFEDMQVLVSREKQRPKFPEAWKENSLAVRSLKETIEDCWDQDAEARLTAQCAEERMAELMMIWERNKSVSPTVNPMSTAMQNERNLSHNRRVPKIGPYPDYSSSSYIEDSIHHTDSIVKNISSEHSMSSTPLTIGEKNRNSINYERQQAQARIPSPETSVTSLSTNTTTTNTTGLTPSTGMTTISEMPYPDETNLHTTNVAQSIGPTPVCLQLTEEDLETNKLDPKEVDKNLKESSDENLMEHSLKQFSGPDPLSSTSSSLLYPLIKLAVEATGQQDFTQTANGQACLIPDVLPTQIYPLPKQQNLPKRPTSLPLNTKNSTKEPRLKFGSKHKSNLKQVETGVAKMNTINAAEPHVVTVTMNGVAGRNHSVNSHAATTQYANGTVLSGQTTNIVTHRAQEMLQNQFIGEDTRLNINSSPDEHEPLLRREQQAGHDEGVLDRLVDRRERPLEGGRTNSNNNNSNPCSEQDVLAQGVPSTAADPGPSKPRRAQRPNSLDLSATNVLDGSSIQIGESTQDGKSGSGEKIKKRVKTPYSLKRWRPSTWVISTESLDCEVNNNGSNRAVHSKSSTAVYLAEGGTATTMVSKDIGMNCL
BMP receptor type II short form (BMPRII-SF), overexpressed (Q13873-2, form named): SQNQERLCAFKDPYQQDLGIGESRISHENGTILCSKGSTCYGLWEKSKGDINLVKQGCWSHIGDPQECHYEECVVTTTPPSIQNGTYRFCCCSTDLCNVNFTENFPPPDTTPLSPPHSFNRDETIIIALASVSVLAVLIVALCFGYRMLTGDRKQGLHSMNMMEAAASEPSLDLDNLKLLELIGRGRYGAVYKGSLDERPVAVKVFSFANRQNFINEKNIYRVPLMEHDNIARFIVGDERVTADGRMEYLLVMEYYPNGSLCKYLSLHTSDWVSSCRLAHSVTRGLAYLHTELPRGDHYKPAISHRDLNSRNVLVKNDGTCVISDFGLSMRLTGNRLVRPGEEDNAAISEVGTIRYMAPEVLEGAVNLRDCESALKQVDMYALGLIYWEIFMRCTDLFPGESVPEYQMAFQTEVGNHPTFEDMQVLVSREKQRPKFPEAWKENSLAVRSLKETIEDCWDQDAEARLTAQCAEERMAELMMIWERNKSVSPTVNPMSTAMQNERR
UniProt O35607, residues 27-1038: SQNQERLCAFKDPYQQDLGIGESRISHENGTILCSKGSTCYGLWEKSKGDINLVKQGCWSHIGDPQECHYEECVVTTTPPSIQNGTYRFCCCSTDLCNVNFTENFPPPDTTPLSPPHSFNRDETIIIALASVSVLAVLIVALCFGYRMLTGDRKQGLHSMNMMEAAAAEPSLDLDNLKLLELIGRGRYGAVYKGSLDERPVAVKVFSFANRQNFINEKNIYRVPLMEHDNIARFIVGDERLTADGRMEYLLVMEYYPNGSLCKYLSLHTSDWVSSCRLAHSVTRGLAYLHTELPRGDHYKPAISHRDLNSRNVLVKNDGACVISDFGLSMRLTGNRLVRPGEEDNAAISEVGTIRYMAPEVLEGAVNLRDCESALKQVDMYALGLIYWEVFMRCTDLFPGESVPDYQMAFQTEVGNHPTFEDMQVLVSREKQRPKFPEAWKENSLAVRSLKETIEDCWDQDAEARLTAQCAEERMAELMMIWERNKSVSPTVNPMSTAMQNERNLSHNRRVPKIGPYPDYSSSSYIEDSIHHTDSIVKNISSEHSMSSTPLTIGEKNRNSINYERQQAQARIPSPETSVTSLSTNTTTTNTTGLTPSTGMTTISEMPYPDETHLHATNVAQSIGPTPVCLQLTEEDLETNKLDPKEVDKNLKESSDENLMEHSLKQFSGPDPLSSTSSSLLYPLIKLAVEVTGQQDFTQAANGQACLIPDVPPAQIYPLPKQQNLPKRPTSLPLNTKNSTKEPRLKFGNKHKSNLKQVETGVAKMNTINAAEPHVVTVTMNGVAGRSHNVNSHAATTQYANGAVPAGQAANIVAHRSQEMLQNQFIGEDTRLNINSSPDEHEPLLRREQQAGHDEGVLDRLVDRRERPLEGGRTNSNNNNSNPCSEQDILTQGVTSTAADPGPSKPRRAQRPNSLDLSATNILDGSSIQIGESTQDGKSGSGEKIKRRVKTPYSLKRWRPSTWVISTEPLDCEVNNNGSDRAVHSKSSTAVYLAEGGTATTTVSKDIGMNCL

Results are given in words; binding and its absence hold for the method and conditions named. Binding seen in cells or lysates may run through a third protein. Some results given as binding are weak or reduced against the parent protein; the word gives no strength.

The target in test [1] is N-terminal flag-tagged p55γ (PI3K regulatory subunit p55 gamma) (mouse) (UniProt Q64143). As to the kind of experiment: co-IP; proteins overexpressed in transiently transfected HEK293T cells; precipitation of p55γ (flag-tag mediated in Figure 3A), blot for BMPRII/BMPRIb; modified RIPA buffer with 0.5% SDS and 0.1% Nonidet P-40; with or without co-expressed BMPRIb-HA (co-expression facilitated the BMPRII-p55γ interaction).

For test [2], the target named is endogenous PI3K regulatory subunit p55γ (mouse (endogenous in C2C12)) (UniProt Q64143). Description: co-IP; endogenous proteins from C2C12 cell extracts; precipitation of endogenous p55γ, p85α or p110α; modified RIPA buffer with 0.1% SDS and 0.5% Nonidet P-40; cells stimulated with 10 nM BMP2 for the indicated times (association of BMPRII increased with BMP2), in Figure 5A also insulin or ….

The target in test [3] is endogenous PI3K regulatory subunit p85α (mouse (endogenous in C2C12)) (UniProt P26450). The test is described as above.

For the substance “HA-tagged BMP receptor type Ib (BMPRIb-HA) (from UniProt P36898 14-502)”, the binding result in test [1] is recorded as “no binding”.

Take “HA-tagged BMP receptor type II long form (BMPRII-LF-HA), wild type (from UniProt Q13873 27-1038)”: in test [1], the binding entry is listed as “binds”.

For “endogenous class Ia PI3K catalytic subunit p110α (from UniProt P42337 1-1068) (enzyme)”, the binding result in test [2] was “binds”.

Regarding “endogenous BMP receptor type II long form (BMPRII-LF) (from UniProt O35607 27-1038)”, the binding entry is reported as “binds” in test [2] and “no binding” in test [3].

Turning to “HA-tagged kinase-dead BMPRII long form K230R (BMPRII-LF-K230R) (from UniProt Q13873 27-1038) (receptor)”, the binding entry in test [1] is reported as “binds”.

With “kinase-dead BMP receptor type Ib K231R (BMPRIb-K231R) (from UniProt P36898 14-502)”, in test [1], the binding entry is recorded as “no binding”.

“BMP receptor type II short form (BMPRII-SF), overexpressed (from UniProt Q13873-2 27-530)”: in test [1], the binding entry is on record as “binds”.
